Assay results: PubChem BioAssay AID1159614 (National Center for Advancing Translational Sciences (NCATS), 2016)
About 65 (0.1%) of roughly 45,000 compounds were called active. The call rests on the fitted dose curve; in most records, active means well fitted activation curve with a large enough effect; inconclusive means small, poorly fitted or top-dose-only effect; inactive means no such curve, though single readings can be large or run the other way. The list shows a part of the results.

Each compound was assayed against Galactocerebrosidase (Homo sapiens) (UniProt P54803) (assay: A Novel Cell-Based Assay to Identify Small Molecules for B -Galactocerebrosidase). Details: 145M-Twi-hGALC-G270D cells (Twitcher mouse brain line with human GALC G270D), HMU-beta-Gal fluorescence, 48 h; series mostly up to 57.5 µM; activation: at the top concentration.
Method in brief: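 Live 145M-Twi cells (Twitcher mouse brain-derived, GALC-null) stably expressing human GALC-G270D, with a wild-type GALC line, were compound-treated. Residual GALC activity was then read as fluorescence from 0.1 mM final HMU-β-gal at pH 5.2; higher signal means activation.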
Further: 0% is about no effect; nearly all actives have a fitted effect of over 65% in size.

UniProt P54803, sequence (P54803 whole entry, looked up): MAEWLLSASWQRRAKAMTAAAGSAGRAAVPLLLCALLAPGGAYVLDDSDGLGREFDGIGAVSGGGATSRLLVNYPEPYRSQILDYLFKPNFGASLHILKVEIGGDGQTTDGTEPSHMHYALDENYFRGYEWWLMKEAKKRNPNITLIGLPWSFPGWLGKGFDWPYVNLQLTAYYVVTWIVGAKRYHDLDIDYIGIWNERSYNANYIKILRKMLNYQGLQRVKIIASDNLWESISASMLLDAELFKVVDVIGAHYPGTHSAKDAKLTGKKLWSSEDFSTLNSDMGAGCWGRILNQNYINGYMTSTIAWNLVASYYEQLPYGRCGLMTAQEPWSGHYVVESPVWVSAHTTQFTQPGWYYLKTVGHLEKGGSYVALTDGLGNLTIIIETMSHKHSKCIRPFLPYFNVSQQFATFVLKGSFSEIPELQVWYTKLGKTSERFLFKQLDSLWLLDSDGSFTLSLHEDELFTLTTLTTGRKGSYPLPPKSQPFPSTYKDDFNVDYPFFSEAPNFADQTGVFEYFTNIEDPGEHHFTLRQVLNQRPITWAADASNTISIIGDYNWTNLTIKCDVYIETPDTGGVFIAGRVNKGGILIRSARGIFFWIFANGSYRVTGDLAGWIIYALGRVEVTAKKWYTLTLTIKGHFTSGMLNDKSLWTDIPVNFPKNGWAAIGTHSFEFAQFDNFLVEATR

activation, inactive:
CCOc1cc2sc(N3CCC(C(=O)Nc4ccc(CC)cc4)CC3)nc2cc1Br -11.3%
COc1ccc(C2C(C(=O)Nc3ccccc3)=C(C)Nc3c(C(=O)Nc4ccccc4)cnn32)cc1 (stereo not given) 17.1%
COc1ccc(C)cc1NC(=O)c1noc2c1CSc1ccccc1-2 -2.91%
Cc1ccc(NC(=O)C2(c3cccs3)CCOCC2)cc1Cl -20%
COc1ccc(Br)cc1C1C(C(=O)Nc2ccc(C)cc2C)=C(C)Nc2ncnn21 (stereo not given) -10.7%
COCCCNc1nc(NCc2ccccc2OC)c2cnn(C)c2n1 3.18%
Cc1ccc(C)c(N2CCN(C(=O)c3cn(CC(C)C)c(=O)c4c3c3ccccc3n4C)CC2)c1 -20%
Cc1ccc(C)c(CSc2nc(-c3ccccc3F)nc3c2Cc2c(CO)cnc(C)c2O3)c1 -14.6%
COCCNC(=O)CCC(=O)NNc1nc2ccccc2c2nc(C)nn12 -3.49%
CCOc1ccccc1NC(=O)c1c(NC(=O)COc2ccc(Cl)cc2)sc2c1CCCCC2 -1.41%
CS(=O)(=O)N1CCc2cc(C(=O)N3CCN(c4cccc(Cl)c4)CC3)ccc21 -4.94%
Cc1ccc2c(CNCCc3ccccc3)c(C(=O)O)n(Cc3ccccc3C)c2c1 8.03%
O=C(NCCc1ccccc1)c1nn(-c2ccccc2F)nc1CO -14.9%
COc1ccc(NC(=O)Cn2c(=O)n(-c3cc(C)cc(C)c3)c(=O)c3oc4ccccc4c32)cc1OC -9.41%
COc1cccc(NC(=O)Cn2nnc(C(=O)NCc3cccs3)c2N)c1 -10.1%
CCOc1ccccc1-c1noc(CSc2nnc(-c3ccccc3)n2-c2cccc(C)c2)n1 -17.3%
CCOC(=O)c1c(Nc2cccc(C(=O)OC)c2)nnc(-c2ccccc2)c1-c1ccccc1 -22.6%
COc1ccc(OC)c(C2c3c(-c4ccc(Br)cc4)n[nH]c3C(=O)N2c2ccc(Cl)cc2)c1 (stereo not given) 5.4%
CCOc1ccc(NC(=O)c2ccc3c(SCC(=O)O)c4c(nc3c2)CCC4)cc1 -17%
CN1CCCN(C(c2ccccc2)c2ccc(Cl)cc2)CC1 (stereo not given) -8.68%
CCOC(=O)[C@H](CCc1ccccc1)N[C@@H](C)C(=O)N1C(=O)N(C)C[C@H]1C(=O)O -12.1%
C[C@@H]1C[C@H]2[C@@H]3CCC4=CC(=O)C=C[C@]4(C)[C@@]3(Cl)[C@@H](O)C[C@]2(C)[C@@]1(OC(=O)c1ccco1)C(=O)CCl -9.14%
CCOC(=O)c1cnc2c(cnn2CC)c1NN=C(C)C -14.7%
COc1ccccc1NC(=O)N1CCN(c2nnc(C)c3c(C)n(-c4ccc(Cl)cc4)nc23)CC1 -17.1%
O=C(Nc1cccc(C(F)(F)F)c1)N1CCC(CN2CCCCCC2)CC1 -6.59%
COc1cc(-c2nc3ccccn3c2Nc2ccccc2C)ccc1O -29%
CCOc1ccccc1NC(=O)COC(=O)c1cn(CC)c2nc(C)ccc2c1=O -4.91%
COc1ccccc1C(=O)Nc1ccc(NC(=O)c2cccs2)cc1 -13.5%
COc1ccc(Nc2cc(C(=O)NCCCN(C)Cc3ccccc3)c3ccccc3n2)c(OC)c1 -29.3%
CCOc1ccc(S(=O)(=O)NCC(c2ccco2)S(=O)(=O)c2ccc(C)cc2)cc1 (stereo not given) -9.77%
COc1ccccc1CNS(=O)(=O)c1ccc(-c2cc(C(F)(F)F)on2)s1 -14%
CC1CCN(c2cc3c(cc2F)c(=O)c(S(=O)(=O)c2cccc(Cl)c2)cn3Cc2ccccc2)CC1 -18.9%
CC1CCc2c(sc(NC(=O)Cn3nnc(-c4ccc(C(F)(F)F)cc4)n3)c2C#N)C1 (stereo not given) -18.9%
COc1ccc(CC(=O)NCCc2sc(-c3ccc(Cl)cc3)nc2C)cc1OC -3.17%
COc1ccc(NC(=O)C(=O)NCCc2sc(-c3ccc(Cl)cc3)nc2C)cc1 -8.34%
COc1ccc(C2=C(C(C)=O)Sc3nnc(-c4ccc(C)cc4)n3N2C(C)=O)cc1OC -5.94%
Cn1nc(-c2ccccc2F)c2cc(C(=O)NCc3ccc(Cl)cc3)sc21 -37.6%
CCc1ccc(NC(=O)CSc2nc3n[nH]c(C)c3c(=N)n2-c2ccc(C)cc2)cc1 0.645%
COc1cc(Cl)c(C)cc1NC(=O)Cn1cc(S(=O)(=O)N2CCN(c3ccccc3F)CC2)c2ccccc2c1=O -8.1%
Cc1cccc(CCNC(=O)C2CCC(CNS(=O)(=O)c3c(C)cc(C)cc3C)CC2)c1 (stereo not given) -12.4%
O=C(Cc1ccc(NC(=O)N2CCCCc3ccccc32)cc1)NCc1ccccc1Br -10%
COc1ccc(OC)c(NC(=O)CCNS(=O)(=O)c2cccc3nsnc23)c1 -2.14%
O=C(NCc1ccc(F)cc1)c1c2c(nc3ccccc13)C(=O)N(C1CCCCC1)C2 -11%
COc1ccccc1CNc1ccc(-c2nc(-c3ccccn3)no2)cc1[N+](=O)[O-] -4.38%
CCOc1ccc2nc(S(N)(=O)=O)sc2c1 -0.972%
N[C@H](C(=O)O)c1ccc(O)cc1 -10.7% [at 23.8 µM]
Cc1ccc(NC(=O)CN(C)S(=O)(=O)c2ccc3c(c2)n(C)c(=O)c(=O)n3C)c(C)c1 -8.15%
N#Cc1ccc(OC(=O)c2cc(-c3ccc(Cl)cc3)on2)cc1 1.12%
Cc1cccc(NS(=O)(=O)c2ccc3[nH]c(=O)[nH]c3c2)c1C -22.2%
O=C(CCC1N=C2c3ccccc3N=C(SCC(=O)Nc3ccccc3F)N2C1=O)NCc1ccco1 (stereo not given) -11.3%
CCOc1ccc(-c2c(C)nn3c(C)c(C(=O)NCc4cccc(OC)c4)cnc23)cc1OCC -12.7%
CCc1ccc(CN2C(=O)c3ccccc3C2C(=O)NC2CCCCCC2)cc1 (stereo not given) -9.75%
CC(C)(C)C(=O)Nc1ccc(-c2nc3ccccc3s2)cc1 -17.5%
Cc1nn(C(=O)COc2ccc(Cl)cc2)c(C)c1Sc1ccccc1 -18.7%
CCOC(=O)c1ccc(NC(=O)CC2C(=O)N(c3ccccc3)C(=O)N2Cc2ccc(C)cc2)cc1 (stereo not given) -9.29%
CCOC(=O)c1c(NC(=O)c2ccc(S(=O)(=O)N3CCC(C)CC3)cc2)sc2c1CCN(C(C)C)C2 -27.8%
COc1ccc(CCNC(=O)CCCn2c(=O)c3ccccc3n(CC(=O)Nc3cccc(C)c3)c2=O)cc1OC 5.82%
COc1ccc(C(=O)Nc2cnc3ccccn3c2=O)cc1 -15.7%
Cc1oc(-c2ccccc2)nc1Cn1c(SCc2cccc(C(F)(F)F)c2)nc2cccnc21 1.37%
CC(=O)Nc1ccc(S(=O)(=O)NCc2ccc3c(c2)CCN3C(C)=O)cc1 -13.4%
